Assay results published in PMC11964917 (Nature Microbiology, 2025).

System: B/Laos/0080/2016 (Victoria)
Design: species or system BALB/c mice
Details: mouse, in vivo

CC(=O)N[C@H]1[C@H]([C@H](O)[C@H](O)CO)OC(C(=O)O)=C[C@@H]1N=C(N)N [ZAN, zanamivir]
minimal protective dose: 1 mg/kg
